# Hit rate of the full screen: of about 52,000 compounds, about 4,300 (8.3%) were called active. Cut-off read from the data, not from the text of the source: active = survival mostly below about 52% (no sharp cut-off); inactive = mostly above about 56%. Some of the results follow.
# Tested on: DeltatarO mutant
# Assay: growth inhibition of S. aureus wild type versus tarO mutant, primary screen, teichoic acid synthesis inhibitors, RN4220, OD600 (AID 463173)
# Conditions: OD600, 18 h, hits give low values, screened at 18.75 µg/mL (by protocol)
row,Compound,survival
1,CCN(CCCNC(=O)c1cc2c(=O)n(C)c3ccccc3c2s1)c1ccccc1,inactive: 57%
2,CCc1ccccc1Nc1nn2c(=O)c3ccc(C(=O)NC(C)C)cc3nc2s1,inactive: 75%
3,C#CCn1c(O)c(N=NC(=O)Cn2nnc(-c3ccccc3)n2)c2cc(Br)ccc21,inactive: 99%
4,CC(=O)Nc1ccc2nc(SCc3ccccc3C#N)sc2c1,inactive: 74%
5,O=C(Cn1c(=O)n(Cc2ccco2)c(=O)c2oc3ccccc3c21)Nc1ccccc1,inactive: 67%
6,COc1ccc(N2Cc3ccccc3C2=O)cc1,inactive: 95%
7,COc1cccc(NC(=O)C2CCC(CNS(=O)(=O)c3csc(C(N)=O)c3)CC2)c1 (stereo not given),inactive: 113%
8,CC(=O)c1ccc(NC(=O)CSc2nc(=O)n(Cc3ccccn3)c3c2CCC3)cc1,inactive: 67%
9,O=C(O)C(Cc1c[nH]c2ccccc12)Nc1ncnc2c1oc1ccccc12 (stereo not given),inactive: 76%
10,CCOCCCNC(=O)c1ccc2c(=O)n(CCc3ccccc3)c(=O)[nH]c2c1,inactive: 74%
11,CCc1ccc2oc(-c3cc(NC(=O)c4cc(OC)c(OC)c(OC)c4)ccc3O)nc2c1,inactive: 73%
12,COc1cccc(N2CCN(C(=O)c3cnn(-c4ccccc4Cl)c3C3CCN(C(=O)OC(C)(C)C)CC3)CC2)c1,inactive: 112%
13,CCC(C)NC(=O)c1cc2n(n1)CCCN(Cc1ccc(C)cc1)C2=O (stereo not given),inactive: 74%
14,Cc1ccc(S(=O)(=O)C(CNC(=O)C(=O)NCCc2ccc(Cl)cc2)c2ccco2)cc1 (stereo not given),inactive: 128%
15,Cc1ccc(N2CCN(C(=O)c3cccn4c(=O)c5ccc(Cl)cc5nc34)CC2C)cc1 (stereo not given),inactive: 83%
16,CC(=O)Nc1ccc(N=NN2CCCCC2)cc1,inactive: 104%
17,O=C1CCC(NC(=O)OCc2ccccc2)(C(=O)O)O1 (stereo not given),inactive: 83%
18,Cc1ccc(NS(=O)(=O)c2ccc3oc(=O)c4ncn(C)c4c3c2)cc1C,inactive: 74%
19,COc1ccc(CCNc2ncnc3c2cnn3-c2ccc(C)c(Cl)c2)cc1,inactive: 76%
20,O=C(CCC1N=C2c3ccccc3N=C(SCc3ccc(Cl)cc3)N2C1=O)NCc1cccs1 (stereo not given),active: 47%
21,COc1ccc(OCC(O)Cn2c(=N)n(CCN3CCCCC3)c3ccccc32)cc1 (stereo not given),inactive: 46%
22,CCC(=O)N1CCc2cc(S(=O)(=O)NC(CC(C)C)C(=O)Nc3cccc(C)c3C)ccc21 (stereo not given),inactive: 73%
23,COc1ccccc1C(=O)n1nc(-c2ccccc2)nc1NCc1ccc(Cl)cc1,inactive: 56%

row,Compound,survival
1,O=C(CCc1ccccc1)NC1CC(=O)N(c2cccc(F)c2)C1 (stereo not given),inactive: 74%
2,CN(C)c1ccc(CNC(=O)CN2C(=O)C3CCCCN3c3ccc(C(=O)N4CCCC4)cc32)cc1 (stereo not given),inactive: 82%
3,Cc1cc(NS(=O)(=O)c2ccc(NC(=O)COc3ccccc3Br)cc2)no1,inactive: 67%
4,Cc1cc(C)cc(NC(=O)CSc2ccc(-c3cccs3)nn2)c1,inactive: 73%
5,CSc1ccccc1S(=O)(=O)C(C)(C)C,inactive: 75%
6,Cc1ccc(Nc2nc(N)nc(CSc3nc4ccccc4s3)n2)cc1,active: 25%
7,COc1ccc(C(CNC(=O)c2oc3cc(C)c(C)cc3c2C)N2CCCCC2)cc1 (stereo not given),inactive: 98%
8,CCn1cc(C(=O)N2CCN(c3ccccc3)CC2)c(=O)c2cc(S(=O)(=O)N(C)C)ccc21,inactive: 99%
9,O=C(Cc1ccc(F)cc1)NCCc1csc2nc(-c3ccccc3F)nn12,inactive: 83%
10,COc1ccc(CCNS(=O)(=O)c2c(C)nc3sccn3c2=O)cc1OC,inactive: 64%
11,CC(CCc1ccccc1)NC(=O)c1ccco1 (stereo not given),inactive: 77%
12,CCOc1ccc(NC(=O)Cn2nnc(-c3nc(-c4ccncc4)no3)c2N)cc1,inactive: 88%
13,CCc1ccc(NCc2cc3cc4c(cc3n(CC(=O)Nc3ccccc3C)c2=O)OCCO4)cc1,inactive: 80%
14,Cc1ccccc1NC(=O)/C(C#N)=C/c1ccc(Cl)cc1Cl,active: 32%
15,Cc1nn2c(C)c(C(=O)NCCc3ccccc3)cnc2c1-c1ccccc1,inactive: 81%
16,CCOC(=O)c1ccc(NC(=O)CC(=O)Nc2ccc3nc4n(c(=O)c3c2)CCCCC4)cc1,inactive: 104%
17,O=C(NCc1ccc(F)cc1)C(=O)NCC(c1ccc2c(c1)OCO2)N1CCOCC1 (stereo not given),inactive: 69%
18,COc1ccc(NC(=O)C2CCCN(S(=O)(=O)c3c(C)[nH]c(=O)[nH]c3=O)C2)c(OC)c1 (stereo not given),inactive: 141%
19,Cc1cccc(-c2nc3nc(C)cc(NC(C)c4ccccc4)n3n2)c1 (stereo not given),inactive: 86%
20,COc1cc(NS(=O)(=O)c2ccc(NC(=O)c3ccc(Cl)cc3Cl)cc2)nc(OC)n1,inactive: 98%
21,COCCCNC(=O)c1cnc2sc(N3CCCCC3)nn2c1=O,inactive: 77%
22,CNC(=O)c1c(NC(=O)/C=C/c2ccccc2)sc2c1CCC2,inactive: 87%
23,CCOCCCN=C1Sc2nc3cc4c(cc3cc2CN1CC1CCCO1)OCO4 (stereo not given),inactive: 103%

row,Compound,survival
1,CSc1ccc(CCNC(=O)CCCn2c(=O)c3cccn3c3ccccc32)cc1,active: 42%
2,CCOc1ccc(C(=O)Nc2cc3c(cc2N2CCCC2)n(C)c(=O)c(=O)n3C)cc1OCC,inactive: 100%
3,CSc1ncc2c(n1)-c1ccccc1N(Cc1ccccc1)S2(=O)=O,inactive: 88%
4,O=C1c2[nH]nc(-c3ccc(F)cc3)c2C(c2ccccc2F)N1c1ccccc1 (stereo not given),active: 10%
5,Cc1ccc2[nH]c3c(=O)n(CC(=O)Nc4ccc(Br)cc4C)ncc3c2c1,inactive: 64%
6,O=C(NCC1CCN(Cc2ccccc2F)CC1)Nc1ccc(F)c(Cl)c1,inactive: 100%
7,Cc1ccnc(NC(=O)COc2ccc(Cl)cc2Cl)n1,inactive: 111%
8,COc1ccc(-c2nc3sc(CCNS(=O)(=O)c4ccccc4)c(C)n3n2)cc1,inactive: 64%
9,CCCOc1ccc(C(=O)Nc2cc3c(cc2N2CCCCC2)n(C)c(=O)n3C)cc1,inactive: 67%
10,Cc1ccc2oc(C(=O)Nc3ccc(S(=O)(=O)Nc4nccc(C)n4)cc3)cc(=O)c2c1,inactive: 56%
11,COc1ccc(Br)cc1CNC(=O)CN1C(=O)c2cccnc2Oc2ccc(C)cc21,inactive: 85%
12,CCN(CC)CCCNc1nc(C)nc2c1nnn2Cc1ccccc1,inactive: 94%
13,CC(C)c1ccc(N(CC(=O)O)S(=O)(=O)c2ccc3[nH]c(=O)c(=O)[nH]c3c2)cc1,inactive: 144%
14,Cc1ccc(S(=O)(=O)Cc2nc(-c3ccc(C(=O)NCCCOC(C)C)cc3)oc2C)cc1,inactive: 72%
15,COc1ccc(Oc2nc3c(c(=O)n(Cc4ccc(Br)cc4)c(=O)n3C)n2C)cc1,inactive: 89%
16,COc1ccc(NC(=O)c2nc(-c3ccc(C)cc3)n3c2CCCCC3)cc1,inactive: 55%
17,CCSc1nc2ccccc2c(OCc2ccccc2Cl)c1C(=O)OC,inactive: 64%
18,O=C(c1ccc(F)cc1)n1nc(-c2cccnc2)nc1NCc1ccccc1,inactive: 71%
19,COc1ccc(-n2ccnc(NCCc3ccccc3)c2=O)cc1OC,inactive: 102%
20,CC(C)(C)c1ccc(C(=O)Nc2c(C(=O)c3ccc(F)cc3)oc3ccccc23)cc1,inactive: 95%
21,Cc1nn(C(C)C(=O)Nc2ccccc2C(F)(F)F)c(=O)c2c1sc1ccccc12 (stereo not given),inactive: 107%
22,Cc1nc2nc(CNC(=O)c3cccc(F)c3)nn2c(C)c1CCC(=O)Nc1cccc(Cl)c1,inactive: 110%
23,Cc1ccc(N(CC(C)C)S(=O)(=O)c2nnc(NC(=O)C(C)C)s2)cc1,inactive: 72%

row,Compound,survival
1,COc1ccccc1CNC(=O)COCc1cc(-c2cccs2)on1,inactive: 69%
2,CCOC(=O)C1=NN(c2ccccc2)C(=O)C1,inactive: 65%
3,Cn1c(-c2ccccc2)nc2cc(N)ccc21,inactive: 97%
4,COC(=O)CCC/C=C1/SCC(NC(=O)c2ccccc2)/C1=N/O (stereo not given),inactive: 96%
5,Fc1ccc(Nc2nc3ccccc3n3cnnc23)c(F)c1,inactive: 56%
6,CCC(=O)N1CCc2cc(S(=O)(=O)NC(Cc3ccccc3)C(=O)O)ccc21 (stereo not given),active: 25%
7,COc1ccc(NC(=O)CSc2nc3ccccc3c(=O)n2CCC(=O)NC2CCCCC2)c(OC)c1,inactive: 75%
8,O=C(CCCCCn1c(=O)c2sccc2n(Cc2ccccc2Cl)c1=O)NCc1ccc2c(c1)OCO2,inactive: 84%
9,Cc1ccc(S(=O)(=O)Nc2ccc3nc(-c4cccc(Cl)c4)oc3c2)cc1,active: 28%
10,COc1ccc(CCNC(=O)C(C)n2nc(C)c3sc4ccccc4c3c2=O)c(OC)c1 (stereo not given),inactive: 58%
11,Cc1ccc2oc(-c3ccc(Cl)c(NC(=O)c4cc5ccccc5o4)c3)nc2c1,active: 39%
12,Cc1ccc(CNC(=O)c2cnc3c(-c4ccc(F)cc4)c(C)nn3c2C)o1,inactive: 94%
13,COc1ccc(Cl)cc1NC(=O)c1cnc2sc(N3CCOCC3)nn2c1=O,inactive: 80%
14,CN1CCN(CCNC(=O)c2cnn(-c3ccc(Cl)cc3)c2C2CCN(C(=O)OC(C)(C)C)CC2)CC1,inactive: 69%
15,CCOC(=O)c1c(NC(=O)c2nc3n(n2)C(C(F)F)CC(C)N3)sc2c1CCCC2 (stereo not given),inactive: 100%
16,CCOc1ccc(-c2nonc2NC(=O)c2oc3ccc(CC)cc3c2C)cc1,inactive: 108%
17,CCN(C(=O)C1CCN(S(=O)(=O)c2c(C)noc2/C=C/c2ccc(C)cc2)CC1)c1cccc(C)c1,inactive: 84%
18,C/C(=N\NC(=O)c1ccc(N2CCCC2=O)cc1)c1ccccc1,inactive: 87%
19,COc1ccc2c(C)c(CC(=O)NCc3ccccc3Cl)c(=O)oc2c1OC,inactive: 55%
20,CC(C)CN(CCNC(=O)CCN1N=C(c2ccccc2)CCC1=O)CC(C)C,inactive: 84%
21,Cc1ccc(-c2onc(C)c2C)cc1S(=O)(=O)Nc1ccccn1,inactive: 84%

# Reference: PubChem BioAssay AID463173 (ICCB-Longwood Screening Facility, Harvard Medical School, 2010)
